# Measured values from article PMC9911399, “Two distinct binding modes provide the RNA-binding protein RbFox with extraordinary sequence specificity”.
# Substitutions are numbered along the chain they refer to; changes in the protein carry UniProt numbers. Some of the results follow.
# T1: RBFOX1 RRM (Homo sapiens, UniProt Q9NWB1 109-208)
# T1 sequence: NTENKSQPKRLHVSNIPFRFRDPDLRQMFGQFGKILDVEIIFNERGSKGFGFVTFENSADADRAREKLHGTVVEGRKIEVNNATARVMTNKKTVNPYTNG
# B1: UGCGGUU (DNA:RNA)
# RNA: GGGAGACCGGAAUUCAGAUUGUCCUGCGGUUUUAAAUCCCGUCGUAGCCACCA
# DNA 1: CAATCTGAATTCCGGTCTCCC
# DNA 2: TGGTGGCTACGACGGGATT
# B2: GUGGCAC (DNA:RNA)
# RNA: B1 RNA with U25G, G26U, C27G, G29C, U30A, U31C
# DNA 1: CAATCTGAATTCCGGTCTCCC
# DNA 2: TGGTGGCTACGACGGGATT
# B3: ACCCGAG (DNA:RNA)
# RNA: B1 RNA with U25A, G26C, G28C, U30A, U31G
# DNA 1: CAATCTGAATTCCGGTCTCCC
# DNA 2: TGGTGGCTACGACGGGATT
# B4: CCUGCUC (DNA:RNA)
# RNA: B1 RNA with U25C, G26C, C27U, G29C, U31C
# DNA 1: CAATCTGAATTCCGGTCTCCC
# DNA 2: TGGTGGCTACGACGGGATT
# B5: AGCGGCU (DNA:RNA)
# RNA: B1 RNA with U25A, U30C
# DNA 1: CAATCTGAATTCCGGTCTCCC
# DNA 2: TGGTGGCTACGACGGGATT
# B6: ACUCACG (DNA:RNA)
# RNA: GGGAGACCGGAAUUCAGAUUGUCCACUCACGUUAAAUCCCGUCGUAGCCACCA
# DNA 1: CAATCTGAATTCCGGTCTCCC
# DNA 2: TGGTGGCTACGACGGGATT
# B7: AGAAAAC (DNA:RNA)
# RNA: B6 RNA with C26G, U27A, C28A, C30A, G31C
# DNA 1: CAATCTGAATTCCGGTCTCCC
# DNA 2: TGGTGGCTACGACGGGATT
# B8: GAUCUGA (DNA:RNA)
# RNA: B6 RNA with A25G, C26A, A29U, C30G, G31A
# DNA 1: CAATCTGAATTCCGGTCTCCC
# DNA 2: TGGTGGCTACGACGGGATT
# B9: CUGACAU (DNA:RNA)
# RNA: B1 RNA with U25C, G26U, C27G, G28A, G29C, U30A
# DNA 1: CAATCTGAATTCCGGTCTCCC
# DNA 2: TGGTGGCTACGACGGGATT
# B10: AAAUACA (DNA:RNA)
# RNA: B6 RNA with C26A, U27A, C28U, G31A
# DNA 1: CAATCTGAATTCCGGTCTCCC
# DNA 2: TGGTGGCTACGACGGGATT
# B11: UUUUUGU (DNA:RNA)
# RNA: B1 RNA with G26U, C27U, G28U, G29U, U30G
# DNA 1: CAATCTGAATTCCGGTCTCCC
# DNA 2: TGGTGGCTACGACGGGATT
# B12: UCGUAAG (DNA:RNA)
# RNA: B6 RNA with A25U, U27G, C28U, C30A
# DNA 1: CAATCTGAATTCCGGTCTCCC
# DNA 2: TGGTGGCTACGACGGGATT
# B13: UUGCUCC (DNA:RNA)
# RNA: B6 RNA with A25U, C26U, U27G, A29U, G31C
# DNA 1: CAATCTGAATTCCGGTCTCCC
# DNA 2: TGGTGGCTACGACGGGATT
# B14: GGGCGCG (DNA:RNA)
# RNA: B6 RNA with A25G, C26G, U27G, A29G
# DNA 1: CAATCTGAATTCCGGTCTCCC
# DNA 2: TGGTGGCTACGACGGGATT
# B15: CACGGCA (DNA:RNA)
# RNA: B1 RNA with U25C, G26A, U30C, U31A
# DNA 1: CAATCTGAATTCCGGTCTCCC
# DNA 2: TGGTGGCTACGACGGGATT
# B16: GUAACCC (DNA:RNA)
# RNA: B6 RNA with A25G, C26U, U27A, C28A, A29C, G31C
# DNA 1: CAATCTGAATTCCGGTCTCCC
# DNA 2: TGGTGGCTACGACGGGATT
# B17: CUGUCGU (DNA:RNA)
# RNA: B1 RNA with U25C, G26U, C27G, G28U, G29C, U30G
# DNA 1: CAATCTGAATTCCGGTCTCCC
# DNA 2: TGGTGGCTACGACGGGATT
# B18: UGUGCAA (DNA:RNA)
# RNA: B1 RNA with C27U, G29C, U30A, U31A
# DNA 1: CAATCTGAATTCCGGTCTCCC
# DNA 2: TGGTGGCTACGACGGGATT
# B19: GAGGGCA (DNA:RNA)
# RNA: B1 RNA with U25G, G26A, C27G, U30C, U31A
# DNA 1: CAATCTGAATTCCGGTCTCCC
# DNA 2: TGGTGGCTACGACGGGATT
# B20: CCGUUCC (DNA:RNA)
# RNA: B6 RNA with A25C, U27G, C28U, A29U, G31C
# DNA 1: CAATCTGAATTCCGGTCTCCC
# DNA 2: TGGTGGCTACGACGGGATT
# Molecular target: T1, RBFOX1 RRM
# Assay: EMSA; HiTS-Eq, 1 nM pool, 10 min; buffer printed only for the single-RNA assays: 10 mM Tris pH 7.5, 150 mM NaCl, 3.4 mM EDTA, 0.001% NP-40, 30 C
# Conditions: tags: His6 N-terminal (pET28a); label: 5' 32P
# Procedure, shortened: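 Purified wild-type or mutant RbFox RRM at increasing concentrations was equilibrated with 1 nM of 5′-radiolabelled RNA carrying 7 randomized nucleotides for 10 min in 50 µL. Unbound RNA was separated by 8% native PAGE and sequenced. Relative association constants came from read-count changes of each RNA species compared with the control reaction, normalised to the cognate motif.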
row,Binder,binding signal
1,B1,0.0229 KA relative to UGCAUGU
2,B2,0.0215 KA relative to UGCAUGU
3,B3,0.00135 KA relative to UGCAUGU
4,B4,0.0163 KA relative to UGCAUGU
5,B5,0.017 KA relative to UGCAUGU
6,B6,0.00217 KA relative to UGCAUGU
7,B7,0.00158 KA relative to UGCAUGU
8,B8,0.0265 KA relative to UGCAUGU
9,B9,0.00749 KA relative to UGCAUGU
10,B10,0.000257 KA relative to UGCAUGU
11,B11,0.0281 KA relative to UGCAUGU
12,B12,0.019 KA relative to UGCAUGU
13,B13,0.0158 KA relative to UGCAUGU
14,B14,0.0176 KA relative to UGCAUGU
15,B15,0.0118 KA relative to UGCAUGU
16,B16,0.00527 KA relative to UGCAUGU
17,B17,0.0193 KA relative to UGCAUGU
18,B18,0.0146 KA relative to UGCAUGU
19,B19,0.0138 KA relative to UGCAUGU
20,B20,0.00895 KA relative to UGCAUGU
